These results are taken from PubChem BioAssay AID463173 (ICCB-Longwood Screening Facility, Harvard Medical School, 2010).

Structures are written as SMILES. About 4,300 (8.3%) of roughly 52,000 compounds were called active. Cut-off read from the data, not from the text of the source: active = survival mostly below about 52% (no sharp cut-off); inactive = mostly above about 56%. Some of the results follow.

This test concerns DeltatarO mutant. The test is described as follows: growth inhibition of S. aureus wild type versus tarO mutant, primary screen, teichoic acid synthesis inhibitors, RN4220, OD600 (AID 463173). The settings on record: OD600, 18 h, hits give low values, screened at 18.75 µg/mL (by protocol).
`COc1ccc(NC(=O)c2ccc(-c3cccc(Cl)c3C)o2)cc1`: the survival is active: 16%. For the molecule `CCn1c(CN2CCCCC2)nc2cc(NC(=O)COc3ccc([N+](=O)[O-])cc3)ccc21`, the survival was inactive: 66%. The value for `CCCSc1nnc(CN2CCOCC2)n1C` was inactive: 89%; that for `CC(NC(=O)Cc1ccc(NC(=O)N2CCCCc3ccccc32)cc1)c1ccccc1` (centres undefined) was inactive: 87%. Take `COc1ccc(-c2nc(CSc3nc4ncccc4[nH]3)c(C)o2)cc1OC`: the survival is inactive: 67%. The value for `CC(NC(=O)c1ccc(N2Cc3ccccc3Oc3ncccc32)s1)c1ccccc1` (centres undefined) was inactive: 83%; that for `CCOC(=O)C(C)NC(=O)c1cc2c(=O)[nH]c3ccc(C)cc3c2s1` (centres undefined) was inactive: 57%; that for `O=C(NCCc1ccc(Cl)cc1)c1ccc2c(c1)N(Cc1ccc(F)cc1Cl)C(=O)CS2` was inactive: 49%. With `Cc1c(Cl)cccc1NC(=O)C(=O)NCCc1csc(-c2cccc(F)c2)n1` the figure was inactive: 76%. With `CCc1ccccc1N1CC(c2nc3ccccc3n2CCC2CCCCC2)CC1=O` (centres undefined) the figure was active: 10%; with `COc1cccc(NS(=O)(=O)c2ccc3[nH]cc(C(=O)N(C)Cc4ccco4)c(=O)c3c2)c1`, inactive: 85%; with `CC(C)c1ccc(NC(=O)CSC2=Nc3ccccc3C3=NC(CC(=O)NCc4ccco4)C(=O)N23)cc1` (centres undefined), inactive: 73%. As to `O=c1c2ccccc2n2c(-c3cccc(F)c3)nnc2n1Cc1ccccc1`, the survival was inactive: 92%. With `CCOC(=O)N1CCN(C(=O)c2cnn(-c3cccc(C)c3)c2-n2cccc2)CC1` the figure was inactive: 94%; with `Cc1ccc(-n2nc(C)c(C(=O)NCCCN3CCN(c4ccccc4F)CC3)c2-n2cccc2)cc1`, inactive: 131%; with `COc1ccc(C(=O)Nc2ccc3c(c2)N(C)C(=O)c2ccccc2S3)cc1OC`, inactive: 72%.

Take `CCOC(=O)c1cnc2c(C)cc(C)cc2c1Nc1ccc(N2CCOCC2)cc1`: the survival was active: 14%. `Cc1nnc(NC(=O)CSc2ncccn2)s1`: the survival is inactive: 77%. Take `CN(Cc1ccccc1)C(=O)c1ccc2c(c1)N(Cc1ccc(Cl)cc1)C(=O)c1ccccc1S2=O` (centres undefined): the survival was inactive: 71%. The value for `CCCOc1ccccc1C(=O)Nc1nc2c(s1)CCCC2` was inactive: 107%. With `Cc1cccc(C)c1OCc1cc(=O)n2ccsc2n1` the figure was inactive: 64%; with `COc1cc(OC)cc(C(=O)Nc2ccc(O)c(-c3nc4cc(C)c(C)cc4o3)c2)c1`, inactive: 77%; with `COc1cc(OC)c(NC(=O)C(C)n2nc(-c3ccc(C)c(C)c3)ccc2=O)cc1Cl` (centres undefined), inactive: 64%. The value for `CC(=O)Nc1ccc(S(=O)(=O)NC(=O)CC(C)C)cc1` was inactive: 93%; that for `Cc1cccc(N2CCN(C(=O)c3c4c(nc5ccccc35)C(=O)N(C3CCCCC3)C4)CC2)c1C` was inactive: 118%. Take `Cc1cc(SCCOc2ccccc2)nc(N)n1`: the survival is inactive: 95%. With `COc1ccc(OC)c(NC(=O)c2cc3c(=O)n4cccc(C)c4nc3n2C)c1`, the survival is inactive: 65%.

`Cc1ccc(N(C)C(=O)c2noc3c2CCCCC3)cc1C`: the survival was inactive: 69%. With `COC(=O)c1c(NC(=O)CCCOc2ccccc2C)sc2c1CCC2` the figure was active: 4%.

Turning to `O=C(NCCCO)c1ccc(CSc2nc3ccccc3c(=O)[nH]2)cc1`, the survival is inactive: 114%. The value for `Cc1ccc(C)c(NS(=O)(=O)c2ccc3c(c2)CCCN3C(=O)C2CCC2)c1` was inactive: 85%; that for `O=C(NCc1ccccc1F)C(=O)NCC(c1ccco1)S(=O)(=O)c1ccccc1` (centres undefined) was active: -5%. The value for `COC(=O)c1ccc2c(c1)n(CCO)c(C)[n+]2CCO` was inactive: 80%. With `COc1ccc(C(C(=O)NCc2ccccc2)N(C(=O)Cn2nnc3ccccc32)c2ccc(OC)cc2)cc1` (centres undefined) the figure was inactive: 60%; with `CCCN1Cc2cccc(C(=O)Nc3ccc(OC)cc3OC)c2C1=O`, inactive: 82%; with `Cc1ccc(NC(=O)N2CCc3c([nH]c4ccccc34)C2c2ccccc2F)c(Cl)c1` (centres undefined), inactive: 89%. For `O=C(Cn1c(=O)c2sccc2n(CC(=O)Nc2ccc(Cl)cc2Cl)c1=O)NCCc1ccccc1`, the survival is inactive: 79%. The value for `COc1cccc(C(=O)c2cn(CC(=O)Nc3cccc(Cl)c3C)c3nc(C)ccc3c2=O)c1` was inactive: 78%; that for `CSc1ncc(C(=O)NCc2cccc(Br)c2)c(-c2ccccc2)n1` was inactive: 83%; that for `O=C(CSc1nc(-c2ccccc2)cc(=O)[nH]1)Nc1ccccc1` was inactive: 77%.

For `COCCN1C(=O)c2oc3ccc(C)cc3c(=O)c2C1c1ccc(C(=O)OC)cc1` (centres undefined), the survival is inactive: 74%. As to `Cc1cc(C)cc(NC(=O)Nc2c[nH]c(=O)[nH]c2=O)c1`, the survival was inactive: 82%.

Turning to `COc1ccc(NS(=O)(=O)c2cc3c4c(c2)CC(=O)N4CCC3)cc1Cl`, the survival is inactive: 115%. With `O=C(NC1(C(F)(F)F)N=C(c2ccccc2)N(C2CCCCC2)C1=O)c1ccccc1F` (centres undefined) the figure was inactive: 68%; with `CCn1c(CN2CCC(C)CC2)nc2cc(NC(=O)c3cccc([N+](=O)[O-])c3)ccc21`, inactive: 85%.

On to `COc1ccc(OC)c(CCNc2ncnc3onc(C)c23)c1`, for which the survival was inactive: 107%. With `CC(=O)Nc1nnc(C(C)C)s1` the figure was inactive: 77%; with `COC(=O)c1cc2sc(Cl)cc2n1Cc1nc(-c2ccccc2F)oc1C`, inactive: 119%; with `Cc1ccc(CCNC(=O)c2ccc(CNS(=O)(=O)c3ccc(F)cc3)cc2)cc1`, inactive: 83%. The value for `CC(=O)N1CCc2c(sc(NC(=O)CSc3ccc(C)cc3)c2-c2nc3ccccc3s2)C1` was inactive: 92%; that for `CCOC(=O)C1=C(CS(=O)(=O)c2ccc(F)c(C)c2)NC(=O)NC1c1ccc(F)c(F)c1` (centres undefined) was inactive: 83%.

Take `COC(=O)COc1ccc(S(=O)(=O)N2CCCCC2)cc1C`: the survival is inactive: 72%. Turning to `Cc1c(C(=O)Nc2ccccc2Cl)oc2ccc(S(=O)(=O)N3CCCCCC3)cc12`, the survival was inactive: 75%.

On to `Cc1cccc(N2CCN(C(=O)c3cccc(-n4c(C)nc5cccnc54)c3)CC2C)c1` (centres undefined), for which the survival was inactive: 71%. With `CC(=O)c1ccc(N2C(=O)N(Cc3cccc(C(F)(F)F)c3)c3ccccc3S2(=O)=O)cc1` the figure was inactive: 78%; with `O=C1C2C3c4ccccc4C(c4ccccc43)C2C(=O)N1Cc1ccccn1` (centres undefined), inactive: 83%. With `CC(=O)Nc1ccc(NC(=O)CCCc2nc(-c3ccc(C(C)(C)C)cc3)no2)cc1` the figure was inactive: 45%. The value for `CC1=C(C(=O)OC2CCCC2)C(c2ccc(F)cc2F)CC(=O)N1` (centres undefined) was inactive: 85%; that for `Cc1ccc(CS(=O)(=O)c2cn(CC(=O)N(C)c3ccccc3)c3ccccc23)cc1` was inactive: 67%; that for `Cc1nc2scc(C)n2c(=O)c1S(=O)(=O)NCc1ccccc1Cl` was inactive: 158%. For the molecule `O=C1NN=C(Cc2ccccc2)C1CCO` (centres undefined), the survival is inactive: 91%. Turning to `CCOc1cc(C(=O)Nc2ccc3oc(-c4ccc(F)cc4Cl)nc3c2)cc(OCC)c1OCC`, the survival is inactive: 64%. The value for `Cc1ccc(NC(=O)c2cc(C)nn2-c2ccccc2)cc1` was inactive: 124%; that for `COc1ccc(N(Cc2cccs2)C(=O)c2ccccc2C)cc1` was inactive: 81%. With `COc1ccccc1CNC(=O)CC1N=C2c3ccccc3N=C(SCC(=O)Nc3ccc(F)cc3)N2C1=O` (centres undefined) the figure was inactive: 125%; with `COc1ccccc1Nc1nn2c(=O)c3ccc(C(=O)N4CCC(C)CC4)cc3nc2s1`, active: 52%. The value for `O=C(Cn1nc(-c2ccccc2)ccc1=O)NCc1ccc(F)cc1Cl` was inactive: 120%.

Turning to `COc1ccc(S(=O)(=O)Nc2cccc(-c3ccc(N4CCOCC4)nn3)c2)cc1F`, the survival was inactive: 88%. With `COc1cc(NC(=O)c2c(-c3ccc(C)cc3)nnc3ccccc23)cc(OC)c1OC` the figure was inactive: 69%.

Consider `Cc1oc2c(c1C(=O)Nc1cccc(Br)c1)C1=NCCN1C=N2`, for which the survival is inactive: 62%.

`Cc1cc2cc(C(c3nnnn3Cc3ccco3)N3CCN(C(=O)c4ccco4)CC3)c(=O)[nH]c2cc1C` (centres undefined): the survival is inactive: 96%. The value for `O=C(c1nc(-c2ccc(Cl)cc2)n2c1CCCCC2)N1CCN(c2ccccc2F)CC1` was inactive: 83%; that for `Cc1cccc(C(=O)Nc2c3c(nn2-c2ccc(Cl)cc2)CS(=O)(=O)C3)c1` was inactive: 74%.

Take `O=[N+]([O-])c1cc(-c2nc(-c3ccccc3)no2)ccc1NCC1CCCO1` (centres undefined): the survival was inactive: 63%. `CCOC(=O)c1ccc2c(c1)N(Cc1cccc(OC)c1)C(=O)c1ccccc1S2(=O)=O`: the survival was inactive: 80%. The value for `CC(C)(C)OC(=O)N1CCC(c2c(C(=O)NC3CCN(Cc4ccccc4)CC3)cnn2-c2cccc(F)c2)CC1` was inactive: 92%; that for `CCOC(=O)c1c(-c2ccccc2)oc2ccc(NS(=O)(=O)c3ccc(OC)cc3)cc12` was inactive: 60%. The value for `COc1ccc(OCC(=O)NCC2(N3CCN(C)CC3)CCCCC2)cc1` was inactive: 68%; that for `COc1cc(C2C(=O)N(C3CCCCC3)CC(=O)N2C2CCCC2)ccc1OC(C)C` (centres undefined) was inactive: 77%. Take `COC(=O)CN1C(=O)C(C)(C)Oc2ccc(C(=O)Nc3cccc(OC)c3)cc21`: the survival was inactive: 80%. As to `O=C(CSc1nc(-c2ccc(F)cc2)cc(C(F)(F)F)n1)NCc1ccccc1`, the survival was inactive: 62%. The value for `CC1CCN(c2ccc(NC(=O)c3cccc(Cl)c3)cc2C(=O)O)CC1` was inactive: 87%. Take `Cc1ccc(-c2cc(C(=O)NC(C)c3ccccc3)c3ccccc3n2)cc1C` (centres undefined): the survival was inactive: 67%. With `CC1CCN(S(=O)(=O)c2ccc(NC(=O)Nc3ccccc3)cc2)CC1` the figure was active: 9%; with `CC(=O)Nc1ccccc1-c1nc2ccccc2n(CC(=O)c2ccc(C)c(C)c2)c1=O`, inactive: 104%; with `CCC(CC)C(=O)Nc1ccc(OCc2cc(=O)n3ccsc3n2)cc1`, inactive: 99%. `Cc1ccc2ncc(C(=O)NCc3ccccc3Cl)c(=O)n2c1`: the survival was inactive: 94%.

As to `O=C(Nc1ccccc1)Nc1ccc2c(c1)C(=O)OC2`, the survival was inactive: 101%. As for `Cc1ccc(C)c(N2CCN(CCCNC(=O)C3COc4ccccc4C3)CC2)c1` (centres undefined), the survival was inactive: 70%.
